Assay results: article PMC7530387
These are yes or no findings as the source states them, for the method shown. Binding seen in cells or lysates may run through a third protein. Some entries that bind do so weakly or less than the wild type. For some of these results: Sequences can lack the tags named with a protein.

Amino acid sequences for entries named in this document (tags omitted).
UniProt Q9Y6J0: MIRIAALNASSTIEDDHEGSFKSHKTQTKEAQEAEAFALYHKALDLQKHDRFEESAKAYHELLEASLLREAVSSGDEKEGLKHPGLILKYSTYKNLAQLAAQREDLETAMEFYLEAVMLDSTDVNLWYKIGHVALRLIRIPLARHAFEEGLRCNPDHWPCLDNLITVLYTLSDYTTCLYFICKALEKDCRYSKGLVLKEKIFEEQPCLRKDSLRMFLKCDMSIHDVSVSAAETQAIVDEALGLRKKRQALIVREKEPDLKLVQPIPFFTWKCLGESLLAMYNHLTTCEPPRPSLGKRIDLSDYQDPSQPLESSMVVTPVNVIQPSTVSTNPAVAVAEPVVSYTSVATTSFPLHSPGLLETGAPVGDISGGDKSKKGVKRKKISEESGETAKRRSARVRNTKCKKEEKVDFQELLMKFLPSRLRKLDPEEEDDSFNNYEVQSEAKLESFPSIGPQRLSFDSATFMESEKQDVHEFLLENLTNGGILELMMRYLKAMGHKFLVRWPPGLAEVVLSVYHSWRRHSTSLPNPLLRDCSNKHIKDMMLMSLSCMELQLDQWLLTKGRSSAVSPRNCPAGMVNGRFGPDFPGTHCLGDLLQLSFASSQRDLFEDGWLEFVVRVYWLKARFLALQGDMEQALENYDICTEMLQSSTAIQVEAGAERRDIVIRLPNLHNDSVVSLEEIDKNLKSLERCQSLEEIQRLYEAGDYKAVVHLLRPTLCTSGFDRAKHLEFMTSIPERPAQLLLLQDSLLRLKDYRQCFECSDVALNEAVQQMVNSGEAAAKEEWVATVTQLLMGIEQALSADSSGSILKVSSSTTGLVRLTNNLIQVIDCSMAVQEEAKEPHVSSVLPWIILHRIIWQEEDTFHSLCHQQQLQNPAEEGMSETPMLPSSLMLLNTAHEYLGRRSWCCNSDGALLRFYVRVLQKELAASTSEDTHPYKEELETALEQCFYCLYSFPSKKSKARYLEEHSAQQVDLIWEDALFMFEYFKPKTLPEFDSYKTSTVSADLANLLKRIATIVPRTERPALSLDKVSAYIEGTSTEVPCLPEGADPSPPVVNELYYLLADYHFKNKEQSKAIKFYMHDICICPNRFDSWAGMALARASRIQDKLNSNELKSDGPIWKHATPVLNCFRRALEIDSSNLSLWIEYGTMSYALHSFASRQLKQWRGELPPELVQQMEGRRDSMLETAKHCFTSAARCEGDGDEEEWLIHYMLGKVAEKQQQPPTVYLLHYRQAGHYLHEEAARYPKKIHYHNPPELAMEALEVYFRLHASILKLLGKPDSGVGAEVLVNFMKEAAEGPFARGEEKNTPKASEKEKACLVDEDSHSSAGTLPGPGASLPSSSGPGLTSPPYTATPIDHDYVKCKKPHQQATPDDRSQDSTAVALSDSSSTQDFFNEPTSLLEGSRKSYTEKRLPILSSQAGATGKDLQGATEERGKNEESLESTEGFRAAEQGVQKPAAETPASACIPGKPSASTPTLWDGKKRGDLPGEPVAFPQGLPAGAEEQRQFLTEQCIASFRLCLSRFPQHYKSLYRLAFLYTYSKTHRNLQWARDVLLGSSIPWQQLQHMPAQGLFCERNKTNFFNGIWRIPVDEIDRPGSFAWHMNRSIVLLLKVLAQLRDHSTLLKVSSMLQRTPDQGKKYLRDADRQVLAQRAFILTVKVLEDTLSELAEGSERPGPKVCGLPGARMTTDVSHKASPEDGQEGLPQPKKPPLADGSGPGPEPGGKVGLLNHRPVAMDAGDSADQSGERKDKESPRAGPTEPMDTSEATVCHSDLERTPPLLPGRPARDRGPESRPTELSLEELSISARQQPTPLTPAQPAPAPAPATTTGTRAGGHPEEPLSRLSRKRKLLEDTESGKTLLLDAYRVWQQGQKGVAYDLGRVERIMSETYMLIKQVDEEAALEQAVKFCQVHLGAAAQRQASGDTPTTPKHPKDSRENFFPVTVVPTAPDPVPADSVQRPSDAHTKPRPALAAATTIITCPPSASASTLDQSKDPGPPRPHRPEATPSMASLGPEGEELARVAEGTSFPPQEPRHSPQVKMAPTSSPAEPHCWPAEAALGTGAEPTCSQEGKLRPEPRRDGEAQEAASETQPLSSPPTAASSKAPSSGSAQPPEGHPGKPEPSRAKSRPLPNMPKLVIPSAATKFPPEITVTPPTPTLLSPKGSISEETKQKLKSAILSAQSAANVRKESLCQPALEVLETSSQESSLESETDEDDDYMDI
UniProt P54198: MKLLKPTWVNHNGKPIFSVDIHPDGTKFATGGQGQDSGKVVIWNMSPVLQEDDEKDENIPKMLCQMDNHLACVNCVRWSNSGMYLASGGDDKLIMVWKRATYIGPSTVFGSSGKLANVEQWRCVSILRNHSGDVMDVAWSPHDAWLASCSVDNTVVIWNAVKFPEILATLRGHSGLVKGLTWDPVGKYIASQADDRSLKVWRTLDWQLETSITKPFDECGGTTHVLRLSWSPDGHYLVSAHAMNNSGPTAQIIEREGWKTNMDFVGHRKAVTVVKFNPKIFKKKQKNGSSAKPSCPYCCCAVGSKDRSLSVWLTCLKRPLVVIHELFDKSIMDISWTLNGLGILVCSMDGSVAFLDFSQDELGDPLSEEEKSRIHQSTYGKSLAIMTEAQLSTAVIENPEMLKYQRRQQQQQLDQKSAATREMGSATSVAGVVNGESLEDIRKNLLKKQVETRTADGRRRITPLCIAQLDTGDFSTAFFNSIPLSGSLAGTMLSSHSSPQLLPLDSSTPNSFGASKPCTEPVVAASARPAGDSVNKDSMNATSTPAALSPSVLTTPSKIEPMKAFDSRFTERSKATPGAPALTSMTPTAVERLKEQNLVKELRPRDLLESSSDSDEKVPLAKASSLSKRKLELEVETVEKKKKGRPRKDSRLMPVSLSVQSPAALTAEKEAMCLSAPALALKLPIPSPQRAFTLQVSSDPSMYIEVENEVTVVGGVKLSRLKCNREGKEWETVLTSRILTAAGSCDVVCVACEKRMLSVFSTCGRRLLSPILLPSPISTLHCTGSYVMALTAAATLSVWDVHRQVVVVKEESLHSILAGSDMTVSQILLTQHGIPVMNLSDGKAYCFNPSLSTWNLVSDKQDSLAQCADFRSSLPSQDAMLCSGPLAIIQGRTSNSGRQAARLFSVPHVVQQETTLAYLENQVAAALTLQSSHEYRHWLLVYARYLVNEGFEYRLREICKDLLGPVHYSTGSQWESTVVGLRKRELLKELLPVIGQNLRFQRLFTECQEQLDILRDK
UniProt Q9NPG3: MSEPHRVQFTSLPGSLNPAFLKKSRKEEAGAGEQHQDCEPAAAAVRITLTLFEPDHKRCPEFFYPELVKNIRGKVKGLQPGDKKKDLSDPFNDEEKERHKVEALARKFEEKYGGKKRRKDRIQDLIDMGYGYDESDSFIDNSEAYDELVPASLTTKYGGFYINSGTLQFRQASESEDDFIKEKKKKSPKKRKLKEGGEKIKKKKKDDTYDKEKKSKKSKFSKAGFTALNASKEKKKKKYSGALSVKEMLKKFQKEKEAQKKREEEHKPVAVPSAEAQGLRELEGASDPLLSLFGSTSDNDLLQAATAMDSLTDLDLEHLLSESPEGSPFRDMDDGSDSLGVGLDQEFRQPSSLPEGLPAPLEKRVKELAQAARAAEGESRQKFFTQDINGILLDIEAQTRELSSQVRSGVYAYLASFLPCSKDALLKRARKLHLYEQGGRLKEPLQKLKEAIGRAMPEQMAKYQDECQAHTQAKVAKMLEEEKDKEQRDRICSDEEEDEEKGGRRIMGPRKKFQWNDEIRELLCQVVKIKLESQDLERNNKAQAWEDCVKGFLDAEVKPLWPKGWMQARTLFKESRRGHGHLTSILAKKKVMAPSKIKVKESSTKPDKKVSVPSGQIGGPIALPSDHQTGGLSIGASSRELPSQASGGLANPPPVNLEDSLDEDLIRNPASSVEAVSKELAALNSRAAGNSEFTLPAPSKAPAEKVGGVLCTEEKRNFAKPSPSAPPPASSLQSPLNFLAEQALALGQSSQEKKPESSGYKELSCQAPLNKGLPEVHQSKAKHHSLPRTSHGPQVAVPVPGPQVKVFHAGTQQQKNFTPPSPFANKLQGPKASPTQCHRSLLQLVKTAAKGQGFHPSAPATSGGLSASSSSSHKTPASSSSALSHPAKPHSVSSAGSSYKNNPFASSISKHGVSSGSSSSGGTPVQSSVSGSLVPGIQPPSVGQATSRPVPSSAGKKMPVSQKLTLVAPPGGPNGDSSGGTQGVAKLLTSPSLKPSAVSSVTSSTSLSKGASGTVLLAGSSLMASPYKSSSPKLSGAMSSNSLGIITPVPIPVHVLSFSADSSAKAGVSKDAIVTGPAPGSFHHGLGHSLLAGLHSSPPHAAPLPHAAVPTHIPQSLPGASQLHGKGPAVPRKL

Columns and labels:
[1] = biological target: T1, Prohibitin (PHB), endogenous nuclear (human (endogenous in MDA-MB-231)) (UniProt P35232); assay: co-IP; soluble nuclear fraction of MDA-MB-231 cells; IP with anti-PHB antibody, IgG control; western blot for endogenous proteins
T1 sequence: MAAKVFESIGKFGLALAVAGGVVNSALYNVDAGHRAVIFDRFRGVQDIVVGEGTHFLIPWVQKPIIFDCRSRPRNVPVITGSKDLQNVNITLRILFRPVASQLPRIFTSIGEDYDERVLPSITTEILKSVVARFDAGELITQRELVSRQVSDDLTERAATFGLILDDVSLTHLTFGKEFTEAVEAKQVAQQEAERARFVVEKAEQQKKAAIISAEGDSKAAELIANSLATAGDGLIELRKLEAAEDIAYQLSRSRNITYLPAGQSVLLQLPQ

[2] = biological target: T2, Flag-PHB domain (aa 55-172) (UniProt P35232); assay: co-IP; Flag-tagged PHB or PHB fragments and HA-HIRA exogenously expressed in HEK 293T cells; IP with M2 beads, western blot; Co-IP buffer 50 mM Tris pH 7.4, 100 mM NaCl, 5 mM EDTA, 0.1% NP40
T2 sequence: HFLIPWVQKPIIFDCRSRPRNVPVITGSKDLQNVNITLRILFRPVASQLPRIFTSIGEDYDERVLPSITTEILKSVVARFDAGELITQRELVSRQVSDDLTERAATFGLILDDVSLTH

[3] = biological target: T3, Flag-PHB-M (PHB domain and coiled-coil domain, aa 55-252) (UniProt P35232); assay: as above
T3 sequence: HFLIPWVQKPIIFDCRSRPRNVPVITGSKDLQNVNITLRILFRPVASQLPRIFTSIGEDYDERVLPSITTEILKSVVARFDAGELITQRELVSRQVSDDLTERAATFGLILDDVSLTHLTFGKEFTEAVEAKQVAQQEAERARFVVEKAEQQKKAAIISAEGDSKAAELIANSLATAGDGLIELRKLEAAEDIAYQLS

[4] = biological target: T4, Flag-coiled-coil (PHB coiled-coil domain, aa 175-252) (UniProt P35232); assay: as above
T4 sequence: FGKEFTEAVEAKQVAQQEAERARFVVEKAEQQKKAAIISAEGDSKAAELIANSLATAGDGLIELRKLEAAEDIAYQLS

[5] = biological target: T5, Flag-tagged PHB (prohibitin 1), full length (UniProt P35232); assay: as above
T5 sequence: T1 sequence

binding [1]	binding [2]	binding [3]	binding [4]	binding [5]	Substance
binds	–	–	–	–	CABIN1 (calcineurin binding protein 1), endogenous (from UniProt Q9Y6J0 1-2220)
–	binds	binds	no binding	binds	HA-tagged HIRA (histone regulator A) (from UniProt P54198 1-1017)
binds	–	–	–	–	HIRA (histone regulator A), endogenous (from UniProt P54198 1-1017)
binds	–	–	–	–	UBN1 (ubinuclein 1), endogenous (from UniProt Q9NPG3 1-1134)
